Series [1] relates to Staphylococcus epidermidis. As to conditions: cited from earlier work.
For series [2], the system named is human HeLa 229 cells.
Series [3] relates to Bacillus subtilis. It counts as cell-based.
Series [4] has as its system Streptococcus pneumoniae. It counts as cell-based.
Series [5] concerns Streptococcus pyogenes. It counts as cell-based.
Series [6] relates to Staphylococcus haemolyticus. The series is classed as cell-based. As to conditions: lacks SPases with Pro^29.
Series [7] deals with Rhodococcus equi. It counts as cell-based.
Series [8] concerns Klebsiella pneumoniae. It counts as cell-based.
Series [9] has as its system Yersinia pestis. The series is classed as cell-based.

In brackets after ≈: the same amount, converted by molar mass.

For `CC(C)CCCCCCCCC(=O)N(C)[C@H](CO)C(=O)N[C@H](C)C(=O)NCC(=O)N(C)[C@@H]1C(=O)N[C@@H](C)C(=O)N[C@H](C(=O)O)Cc2ccc(O)c(c2)-c2cc1ccc2O` [arylomycin A2, reference compound], the “minimum inhibitory concentrations (MICs)” value in series [1] is 1.0 µg/mL (≈ 1.21 µM).
With `CCCCCCCCCCCCCCCC(=O)N(C)[C@H](CO)C(=O)N[C@H](C)C(=O)NCC(=O)N(C)[C@@H]1C(=O)N[C@@H](C)C(=O)N[C@H](C(=O)O)Cc2ccc(O)c(c2)-c2cc1ccc2O` [arylomycin C16], in series [2], the “adverse effects on the human cells” value is recorded as “no adverse effects”. Moreover, the “arylomycin susceptibility” value in series [3] was “resistant”; in series [4], “sensitive”; in series [5], “sensitive”; in series [6] it was “sensitive”; in [7], “sensitive”; in series [8] it was “resistant”. The “arylomycin susceptibility” value in series [9] is reported as “sensitive”. For the same compound, in series [7], the “difference in sensitivities between R. opacus and R. equi” value is listed as 8 fold. The “minimum inhibitory concentrations (MICs)” value in series [1] was 0.25 µg/mL (≈ 0.284 µM).
